pIC50: −log10 of the molar value. A lower IC50 marks a more sensitive line; fits outside the tested doses are given as limits. AUC sums up the same curve from the lowest dose to the 256-fold higher top dose; values near 1 show little effect. For part of these data: An inferred top dose comes from the curve model; the source does not state it.
What was measured:
Experiment in all cases: Viability of human cancer cell lines after 72 h of drug (GDSC screen)
[1] = compound: Cc1n[nH]c2ccc(-c3cncc(OC[C@@H](N)Cc4c[nH]c5ccccc45)c3)cc12 [A-443654]; settings: top dose 1.024 µM; top dose inferred
Protocol: (§1)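 Human cancer cell lines in 384-well plates, medium with 10% serum, drug for 72 h over a 256-fold dose range (nine 2-fold or five 4-fold steps up to the top dose). Adherent lines were fixed and stained with the nucleic acid dye Syto60, suspension lines read with resazurin; signal relative to control wells, capped at 0 and 100%. One two-parameter sigmoid per drug and line, fitted in a mixed model over all curves with the slope shared within a line.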

[2] = compound: COc1cc(N2CCN(C)CC2)ccc1Nc1nc(N)c(C(=O)c2c(Cl)cccc2Cl)s1 [XMD14-99]; settings: top dose 10.24 µM; top dose inferred
Protocol: as §1

[3] = compound: Cc1nc(Nc2ncc(C(=O)Nc3c(C)cccc3Cl)s2)cc(N2CCN(CCO)CC2)n1 [Dasatinib]; settings: top dose 1.28 µM
Protocol: as §1

[4] = compound: O=C(NC1CCNCC1)c1n[nH]cc1NC(=O)c1c(Cl)cccc1Cl [AT-7519]; settings: top dose 10.24 µM; top dose inferred
Protocol: as §1

[5] = compound: Cc1cc([N+](=O)[O-])ccc1NS(=O)(=O)c1cc(Cl)ccc1Cl [FH535]; settings: top dose 32 µM; top dose inferred
Protocol: as §1

In the case of “NCI-H1395 (lung adenocarcinoma, adherent)”, the AUC [1] was 0.957, the pIC50 [1] was < 5.99 and the AUC [2] was 0.979. The pIC50 [2] was < 4.99, the AUC [3] was 0.939 and the pIC50 [3] was < 5.89. For the same cell line, the AUC [4] was 0.623, the pIC50 [4] was 5.81 and the AUC [5] was 0.961. The pIC50 [5] was < 4.49.
Work on TK10 (kidney, adherent) yielded an AUC [1] of 0.682, a pIC50 [1] of 6.64 and an AUC [2] of 0.976. For the same cell line, the pIC50 [2] was < 4.99, the AUC [3] was 0.261 and the pIC50 [3] was 7.85. It also gave an AUC [4] of 0.761, a pIC50 [4] of 5.36 and an AUC [5] of 0.686. It also gave a pIC50 [5] of 5.13.
EJM (lymphoid neoplasm, semi-adherent) was tested, and the AUC [1] was 0.806, the pIC50 [1] was 6.37 and the AUC [2] was 0.979. The pIC50 [2] was < 4.99, the AUC [3] was 0.97 and the pIC50 [3] was < 5.89. The AUC [4] was 0.634, the pIC50 [4] was 5.85 and the AUC [5] was 0.66. It also gave a pIC50 [5] of 5.29.
SUP-HD1 (Hodgkin lymphoma, suspension) gave an AUC [1] of 0.64, a pIC50 [1] of 6.82 and an AUC [2] of 0.955. The pIC50 [2] was < 4.99, the AUC [3] was 0.975 and the pIC50 [3] was < 5.89. The AUC [4] was 0.318, the pIC50 [4] was 6.69 and the AUC [5] was 0.676. It also gave a pIC50 [5] of 5.22.
“KARPAS-620 (haematopoietic neoplasm, suspension)” showed an AUC [1] of 0.536, a pIC50 [1] of 7.10 and an AUC [2] of 0.968. The pIC50 [2] was < 4.99, the AUC [3] was 0.887 and the pIC50 [3] was 5.97. For the same cell line, the AUC [4] was 0.293, the pIC50 [4] was 6.73 and the AUC [5] was 0.524. The pIC50 [5] was 5.64.
Work on SU-DHL-16 (B-cell lymphoma, suspension) yielded an AUC [1] of 0.575, a pIC50 [1] of 7.01 and an AUC [2] of 0.971. The pIC50 [2] was < 4.99, the AUC [3] was 0.108 and the pIC50 [3] was 8.09. For the same cell line, the AUC [4] was 0.452, the pIC50 [4] was 6.31 and the AUC [5] was 0.583. The pIC50 [5] was 5.50.
For “KMOE-2 (acute myeloid leukaemia, suspension)”, the AUC [1] was 0.885, the pIC50 [1] was 6.04 and the AUC [2] was 0.99. The pIC50 [2] was < 4.99, the AUC [3] was 0.99 and the pIC50 [3] was < 5.89. For the same cell line, the AUC [4] was 0.491, the pIC50 [4] was 6.22 and the AUC [5] was 0.626. The pIC50 [5] was 5.37.
NB10 (neuroblastoma, adherent) was tested, and the AUC [1] was 0.965, the pIC50 [1] was < 5.99 and the AUC [2] was 0.962. The pIC50 [2] was < 4.99, the AUC [3] was 0.986 and the pIC50 [3] was < 5.89. For the same cell line, the AUC [4] was 0.919, the pIC50 [4] was < 4.99 and the AUC [5] was 0.792. The pIC50 [5] was 4.85.
KURAMOCHI (ovary, adherent) showed an AUC [1] of 0.617, a pIC50 [1] of 6.85 and an AUC [2] of 0.963. The pIC50 [2] was < 4.99, the AUC [3] was 0.405 and the pIC50 [3] was 7.38. For the same cell line, the AUC [4] was 0.657, the pIC50 [4] was 5.73 and the AUC [5] was 0.452. It also gave a pIC50 [5] of 5.84.
In the case of “MOLM-13 (acute myeloid leukaemia, suspension)”, the AUC [1] was 0.525, the pIC50 [1] was 7.13 and the AUC [2] was 0.858. It also gave a pIC50 [2] of 5.12, an AUC [3] of 0.806 and a pIC50 [3] of 6.22. For the same cell line, the AUC [4] was 0.216, the pIC50 [4] was 7.00 and the AUC [5] was 0.685. The pIC50 [5] was 5.20.
In the case of OCUB-M (breast, adherent), the AUC [1] was 0.352, the pIC50 [1] was 7.58 and the AUC [2] was 0.988. For the same cell line, the pIC50 [2] was < 4.99, the AUC [3] was 0.867 and the pIC50 [3] was 6.04. The AUC [4] was 0.458, the pIC50 [4] was 6.30 and the AUC [5] was 0.333. For the same cell line, the pIC50 [5] was 6.13.
HUTU-80 (digestive system, adherent) showed an AUC [1] of 0.595, a pIC50 [1] of 6.95 and an AUC [2] of 0.981. The pIC50 [2] was < 4.99, the AUC [3] was 0.726 and the pIC50 [3] was 6.51. The AUC [4] was 0.842, the pIC50 [4] was 5.26 and the AUC [5] was 0.404.
“RPMI-8402 (T-cell lymphoblastic leukaemia, suspension)” showed an AUC [1] of 0.681, a pIC50 [1] of 6.73 and an AUC [2] of 0.836. The pIC50 [2] was 5.28, the AUC [3] was 0.909 and the pIC50 [3] was < 5.89. For the same cell line, the AUC [4] was 0.233, the pIC50 [4] was 6.90 and the AUC [5] was 0.7. It also gave a pIC50 [5] of 5.18.
For A498 (kidney, adherent), the AUC [1] was 0.978, the pIC50 [1] was < 5.99 and the AUC [2] was 0.966. For the same cell line, the pIC50 [2] was < 4.99, the AUC [3] was 0.516 and the pIC50 [3] was 7.04. For the same cell line, the AUC [4] was 0.915, the pIC50 [4] was < 4.99 and the AUC [5] was 0.978. For the same cell line, the pIC50 [5] was < 4.49.
Work on NB13 (neuroblastoma, adherent) yielded an AUC [1] of 0.745, a pIC50 [1] of 6.53 and an AUC [2] of 0.99. The pIC50 [2] was < 4.99, the AUC [3] was 0.91 and the pIC50 [3] was < 5.89. For the same cell line, the AUC [4] was 0.907, the pIC50 [4] was < 4.99 and the AUC [5] was 0.66. It also gave a pIC50 [5] of 5.28.
Cell Line KOPN-8 (B-cell leukaemia, suspension) has an AUC [1] of 0.704, a pIC50 [1] of 6.66 and an AUC [2] of 0.943. The pIC50 [2] was < 4.99, the AUC [3] was 0.927 and the pIC50 [3] was < 5.89. The AUC [4] was 0.358, the pIC50 [4] was 6.56 and the AUC [5] was 0.674. It also gave a pIC50 [5] of 5.25.
“IST-SL1 (small cell lung carcinoma, semi-adherent)” gave an AUC [1] of 0.79, a pIC50 [1] of 6.33 and an AUC [2] of 0.93. The pIC50 [2] was < 4.99, the AUC [3] was 0.973 and the pIC50 [3] was < 5.89. The AUC [4] was 0.498, the pIC50 [4] was 6.20 and the AUC [5] was 0.856. For the same cell line, the pIC50 [5] was 4.57.
Work on KLE (endometrium, adherent) yielded an AUC [1] of 0.637, a pIC50 [1] of 6.72 and an AUC [2] of 0.978. For the same cell line, the pIC50 [2] was < 4.99, the AUC [3] was 0.528 and the pIC50 [3] was 7.00. It also gave an AUC [4] of 0.713, a pIC50 [4] of 5.44 and an AUC [5] of 0.696. It also gave a pIC50 [5] of 5.01.
In the case of “SBC-1 (small cell lung carcinoma, suspension)”, the AUC [1] was 0.641, the pIC50 [1] was 6.81 and the AUC [2] was 0.989. For the same cell line, the pIC50 [2] was < 4.99, the AUC [3] was 0.813 and the pIC50 [3] was 6.18. It also gave an AUC [4] of 0.863, a pIC50 [4] of 5.08 and an AUC [5] of 0.892. For the same cell line, the pIC50 [5] was < 4.49.
With “NCI-H64 (small cell lung carcinoma, suspension)” the AUC [1] was 0.728, the pIC50 [1] was 6.63 and the AUC [2] was 0.996. The pIC50 [2] was < 4.99, the AUC [3] was 0.988 and the pIC50 [3] was < 5.89. The AUC [4] was 0.333, the pIC50 [4] was 6.60 and the AUC [5] was 0.688. The pIC50 [5] was 5.24.
Cell Line NTERA-2 cl.D1 (testis, adherent) has an AUC [1] of 0.384, a pIC50 [1] of 7.51 and an AUC [2] of 0.985. The pIC50 [2] was < 4.99, the AUC [3] was 0.549 and the pIC50 [3] was 6.96. For the same cell line, the AUC [4] was 0.584, the pIC50 [4] was 5.97 and the AUC [5] was 0.444. It also gave a pIC50 [5] of 5.85.
HCC2157 (breast, suspension) showed an AUC [1] of 0.827, a pIC50 [1] of 6.18 and an AUC [2] of 0.987. For the same cell line, the pIC50 [2] was < 4.99, the AUC [3] was 0.98 and the pIC50 [3] was < 5.89. For the same cell line, the AUC [4] was 0.659, the pIC50 [4] was 5.74 and the AUC [5] was 0.739. It also gave a pIC50 [5] of 5.00.

Reference: the supplement of paper PMC4967469
